Hit rate of the full screen: of about 310,000 compounds, about 2,200 (0.71%) showed an effect of 50% or more. Effects have a minus sign here. Some of the results follow.
These molecules were tested against human ether-à-go-go-related gene (hERG) potassium channel (human, UniProt Q12809) (assay: primary screen, population patch clamp on CHO cells stably expressing hERG).
human ether-à-go-go-related gene (hERG) potassium channel, sequence (Q12809 whole entry, looked up): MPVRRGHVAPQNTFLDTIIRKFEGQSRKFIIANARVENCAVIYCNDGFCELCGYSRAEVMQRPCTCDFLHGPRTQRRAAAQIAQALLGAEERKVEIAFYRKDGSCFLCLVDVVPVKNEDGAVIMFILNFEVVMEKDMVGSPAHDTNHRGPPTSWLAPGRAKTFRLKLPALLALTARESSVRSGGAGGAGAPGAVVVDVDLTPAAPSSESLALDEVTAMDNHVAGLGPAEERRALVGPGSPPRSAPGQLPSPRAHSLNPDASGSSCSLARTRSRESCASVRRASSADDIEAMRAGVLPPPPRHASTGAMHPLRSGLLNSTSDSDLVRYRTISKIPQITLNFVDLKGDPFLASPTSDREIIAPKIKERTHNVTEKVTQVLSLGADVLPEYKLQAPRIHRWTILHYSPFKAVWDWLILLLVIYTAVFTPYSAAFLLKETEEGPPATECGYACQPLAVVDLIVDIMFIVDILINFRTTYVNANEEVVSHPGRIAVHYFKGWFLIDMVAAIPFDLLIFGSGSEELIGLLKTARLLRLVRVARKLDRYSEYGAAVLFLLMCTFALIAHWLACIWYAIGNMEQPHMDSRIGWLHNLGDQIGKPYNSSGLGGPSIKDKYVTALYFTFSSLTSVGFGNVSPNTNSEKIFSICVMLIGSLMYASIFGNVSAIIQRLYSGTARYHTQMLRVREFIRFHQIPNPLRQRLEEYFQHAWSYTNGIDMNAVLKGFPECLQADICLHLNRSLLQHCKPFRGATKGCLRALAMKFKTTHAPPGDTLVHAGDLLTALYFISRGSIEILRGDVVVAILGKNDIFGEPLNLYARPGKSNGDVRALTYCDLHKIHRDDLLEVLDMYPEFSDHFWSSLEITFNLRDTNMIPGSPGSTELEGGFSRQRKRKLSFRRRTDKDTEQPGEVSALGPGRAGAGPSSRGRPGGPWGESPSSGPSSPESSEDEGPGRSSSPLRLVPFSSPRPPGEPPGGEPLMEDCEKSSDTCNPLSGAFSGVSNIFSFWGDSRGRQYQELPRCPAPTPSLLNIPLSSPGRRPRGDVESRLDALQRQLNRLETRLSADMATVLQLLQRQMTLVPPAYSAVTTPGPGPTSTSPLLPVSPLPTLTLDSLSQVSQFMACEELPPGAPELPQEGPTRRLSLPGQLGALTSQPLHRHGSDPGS
`COc1ccccc1C(=O)OCc1nc(N)nc(Nc2ccccc2C)n1` was tested, and the “hERG current change (%, negative = inhibition) at 1uM” value was 6.99%. In the case of `CN(C)c1ccnc2sc(C(=O)NCc3ccccc3)c(N)c12`, the “hERG current change (%, negative = inhibition) at 1uM” value is reported as -20.7%. With `CCOc1cc2c(cc1OCC)-n1cccc1C(c1ccc(F)c(OC)c1)NC2.Cl` (stereo not drawn) the “hERG current change (%, negative = inhibition) at 1uM” value was 7.9%. For `Cc1[nH]nc(Sc2ccccn2)c1[N+](=O)[O-]`, the “hERG current change (%, negative = inhibition) at 1uM” value was 5.84%. For `C#CCOCCOCCOCCNc1nc(N2CCN(C(=O)Cn3cc(CCCC[NH3+])nn3)CC2)nc(N2CCN(C(=O)[C@H](CCCC[NH3+])n3cc(CCCC)nn3)CC2)n1.[Cl-]`, the “hERG current change (%, negative = inhibition) at 1uM” value was 8.76%. `CCOc1ccc2nc(SC3CC(=O)N(c4ccc(OC)cc4)C3=O)sc2c1` (stereo not drawn) was tested, and the “hERG current change (%, negative = inhibition) at 1uM” value was 6.56%. In the case of `Cc1cc(C)c(S(=O)(=O)c2ccccc2C)c(OCCO)n1`, the “hERG current change (%, negative = inhibition) at 1uM” value is reported as 3.05%. For `CCOc1ccc(NC(=O)c2cccc(OC(=S)N3CCC(C)CC3)c2)cc1`, the “hERG current change (%, negative = inhibition) at 1uM” value was 6.81%. For `O=C(NC(c1ccccc1)c1ccccc1)N1CCN(CCO)CC1`, the “hERG current change (%, negative = inhibition) at 1uM” value was 5.24%. With `CCOC(=O)c1c(C)[nH]c(C)c1C(=O)COC(=O)c1sccc1C` the “hERG current change (%, negative = inhibition) at 1uM” value was 7.05%. In the case of `Cc1cc(C)n(C(=O)c2cc([N+](=O)[O-])cc([N+](=O)[O-])c2)n1`, the “hERG current change (%, negative = inhibition) at 1uM” value is reported as 12.1%. For `Cc1cc(C(=O)NC2CCCC2)on1`, the “hERG current change (%, negative = inhibition) at 1uM” value was 0.83%. With `O=C(c1ccc(Cl)c(S(=O)(=O)N2CCCC2)c1)N1CCN(c2ccccc2F)CC1` the “hERG current change (%, negative = inhibition) at 1uM” value was 5.8%. `O=C(Oc1oc(-c2ccco2)nc1C=Nc1ccccc1)c1ccoc1` was tested, and the “hERG current change (%, negative = inhibition) at 1uM” value was 18.5%. `CCOC(=O)c1sc(N2C(=O)C(O)=C(C(=O)c3ccco3)C2c2ccc(C)o2)nc1C` (stereo not drawn) was tested, and the “hERG current change (%, negative = inhibition) at 1uM” value was 11.9%. For `COc1ccc(OC)c(C2C3=C(COC3=O)Nc3cc4c(cc32)OCO4)c1` (stereo not drawn), the “hERG current change (%, negative = inhibition) at 1uM” value was 10.1%. With `COCC(C)n1c(C)cc(C(=O)COC(=O)c2ccc3c(c2)NC(=O)CS3)c1C` (stereo not drawn) the “hERG current change (%, negative = inhibition) at 1uM” value was 12.2%. In the case of `CC(NC(=O)C1CCC(CNc2c(N3CCCCC3)c(=O)c2=O)CC1)c1ccccc1` (stereo not drawn), the “hERG current change (%, negative = inhibition) at 1uM” value is reported as 5.36%. `CCn1cc(/C=N/NC(=O)c2ccc3c(c2)OCO3)c(C)n1` was tested, and the “hERG current change (%, negative = inhibition) at 1uM” value was 14.1%. In the case of `c1ccc(-c2noc(CSc3nnnn3C3CCCCC3)n2)cc1`, the “hERG current change (%, negative = inhibition) at 1uM” value is reported as 3.01%. In the case of `COc1ccccc1NC(=O)C1=C(C)NC(=O)NC1c1ccc(C)cc1` (stereo not drawn), the “hERG current change (%, negative = inhibition) at 1uM” value is reported as 5.77%. `CCn1c(SCC(=O)N2CCCCC2)nc2c(c1=O)SCC2` was tested, and the “hERG current change (%, negative = inhibition) at 1uM” value was 12%. With `Cc1cc(=O)oc2c(C)c(OCC(=O)NCCCN3CCOCC3)ccc12` the “hERG current change (%, negative = inhibition) at 1uM” value was 18.6%. For `COc1ccc(OC)c(S(=O)(=O)N2CCC(C(=O)N3CCN(c4ccc(F)cc4)CC3)CC2)c1`, the “hERG current change (%, negative = inhibition) at 1uM” value was -19.8%. With `Cc1noc(C)c1C(=O)OCC(=O)Nc1ccccc1SCC#N` the “hERG current change (%, negative = inhibition) at 1uM” value was -0.938%. `CSc1nc(Cc2ccc(Cl)cc2)nc2ccccc12` was tested, and the “hERG current change (%, negative = inhibition) at 1uM” value was 6.83%. In the case of `Cn1c(=O)c2[nH]c(N3CCOCC3)nc2n(-c2ccccc2)c1=O`, the “hERG current change (%, negative = inhibition) at 1uM” value is reported as 13.6%. In the case of `O=C(Nc1ccc(Cl)cn1)c1cc(S(=O)(=O)N2CCCCC2)ccc1Cl`, the “hERG current change (%, negative = inhibition) at 1uM” value is reported as 0.512%. In the case of `Cc1cccc(NC(=O)c2onc3c2CCCC3)n1`, the “hERG current change (%, negative = inhibition) at 1uM” value is reported as -8.99%. With `CC(Oc1ccc2c(-c3ccccc3)cc(=O)oc2c1)C(=O)NCc1ccccn1` (stereo not drawn) the “hERG current change (%, negative = inhibition) at 1uM” value was -2.51%. `COc1ccc(C2(C(=O)N3CCOCC3)CCCC2)cc1` was tested, and the “hERG current change (%, negative = inhibition) at 1uM” value was 16.4%. For `COc1cccc(NC(=O)CN(C)C(=O)CSc2nc(C)cc(C)n2)c1`, the “hERG current change (%, negative = inhibition) at 1uM” value was 13%. With `C/C(=N\NC(=O)COc1cc(C)cc(C)c1)c1cccc(NC(=O)C2CCC2)c1` the “hERG current change (%, negative = inhibition) at 1uM” value was 4.02%. With `CCCN(C(=O)CCNC(=O)Cn1cnc2ccccc2c1=O)c1cccc(Cl)c1` the “hERG current change (%, negative = inhibition) at 1uM” value was 10%. With `COC(=O)CN1C(=O)[C@H]2[C@@H](/C=C/c3ccccc3)N3C(=O)CN(CC4CC4)C(=O)[C@@]3(Cc3ccccc3)[C@H]2C1=O` the “hERG current change (%, negative = inhibition) at 1uM” value was 15.5%. With `Cc1ccc(S(=O)(=O)NC2=NCN(C3CCN(Cc4ccccc4)CC3)CN2)cc1` the “hERG current change (%, negative = inhibition) at 1uM” value was -6.75%. With `CC(C)Oc1ccc(C(=O)NC(C)(C)CO)cc1` the “hERG current change (%, negative = inhibition) at 1uM” value was 15.1%. `COc1cc(Br)cc(C(c2c(C)n(C)n(-c3ccccc3)c2=O)c2c(C)n(C)n(-c3ccccc3)c2=O)c1O` was tested, and the “hERG current change (%, negative = inhibition) at 1uM” value was 7.67%. In the case of `CCOC(=O)c1cc(C(=O)OCC)c2cc(Br)ccc2n1`, the “hERG current change (%, negative = inhibition) at 1uM” value is reported as -4.65%. For `CCc1ccc(S(=O)(=O)c2n[nH]n3c2nc(=O)c2ccccc23)cc1`, the “hERG current change (%, negative = inhibition) at 1uM” value was -3.37%. `Cc1ccc(NC(=O)C(C)C(=O)Nc2ccc(C)cc2)cc1` was tested, and the “hERG current change (%, negative = inhibition) at 1uM” value was 12.8%. `COc1ccc(/C=C/C(O)=C(\C#N)c2nnc(N3CCOCC3)n2-c2ccccc2)cc1OC` was tested, and the “hERG current change (%, negative = inhibition) at 1uM” value was 4.53%. For `Cc1oc2cc3oc(=O)c(CCC(=O)NC4CC4)c(C)c3cc2c1C`, the “hERG current change (%, negative = inhibition) at 1uM” value was 15.2%. In the case of `Cc1ccc(Nc2c(-c3ccco3)nc3nc(C)cc(C)n23)cc1`, the “hERG current change (%, negative = inhibition) at 1uM” value is reported as 3.6%. For `CCOc1ccc(C(=O)NN2CCOCC2)cc1`, the “hERG current change (%, negative = inhibition) at 1uM” value was 7.67%. In the case of `CCc1ccc(NC(=O)C(=O)N/N=C(\C)CC(=O)Nc2ccccn2)cc1`, the “hERG current change (%, negative = inhibition) at 1uM” value is reported as -5.13%. With `CC1=C(C(=O)NC(C)C)C2(CCC(C)CC2)OC1=O` (stereo not drawn) the “hERG current change (%, negative = inhibition) at 1uM” value was 11.5%. In the case of `COc1ccc(/C=N/NC(=O)c2cccc([N+](=O)[O-])c2)cc1OC`, the “hERG current change (%, negative = inhibition) at 1uM” value is reported as 7.94%. In the case of `COc1ccc(OCC(=O)Nc2nonc2NC(=O)COc2ccc(OC)cc2)cc1`, the “hERG current change (%, negative = inhibition) at 1uM” value is reported as 18.7%. With `CC(C)NC(=O)C1CCN(Cc2cnn(-c3ccccc3)c2-n2cccc2)CC1` the “hERG current change (%, negative = inhibition) at 1uM” value was 6.5%. For `O=C(Nc1ncc(Cc2cccc(Cl)c2)s1)c1cccs1`, the “hERG current change (%, negative = inhibition) at 1uM” value was 10.7%. For `Fc1ccccc1-c1nc(-c2ccncc2)no1`, the “hERG current change (%, negative = inhibition) at 1uM” value was 7.25%. With `Cc1nnc(NC(=O)c2cccc(S(=O)(=O)N3CCc4ccccc43)c2)s1` the “hERG current change (%, negative = inhibition) at 1uM” value was -1.57%. `Cc1ccc(C(=O)OCC(=O)Nc2ccc(N(C)C)cc2)cc1NC(=O)c1ccco1` was tested, and the “hERG current change (%, negative = inhibition) at 1uM” value was 8.17%.

Source: paper PMC4336329 (PLoS ONE, 2015)
